Data: the antibiotic and cytotoxicity screens of Wong et al. (2023)
The list shows a part of the results.

What was measured:
[1] = test system: HSkMC (human skeletal muscle cells); assay: cytotoxicity call (relative viability < 0.9); conditions: 10 µM
[2] = test system: HepG2; assay: cytotoxicity call (relative viability < 0.9); conditions: 10 µM
[3] = test system: S. aureus RN4220; assay: growth inhibition call (relative growth <= 0.2); conditions: 50 µM

C[C@@H]1CCCCO[C@@H](CN(C)C(=O)Nc2ccc(F)cc2)[C@@H](C)CN([C@H](C)CO)C(=O)c2cc(NC(=O)Nc3ccc4c(c3)OCO4)ccc2O1
inactive: cytotoxicity call [1] | cytotoxicity call [2] | growth inhibition call [3]

C=CCNC(=O)[C@@H]1[C@H]2C(=O)O[C@H](c3ccccc3)[C@H](c3ccccc3)N2[C@H](c2ccc(OCCO)cc2)[C@@]12C(=O)N(C(=O)OCCOC)c1ccc(C#Cc3ccc(OC)cc3)cc12
inactive: cytotoxicity call [1] | cytotoxicity call [2] | growth inhibition call [3]

C[C@@H]1CN([C@H](C)CO)C(=O)CCCn2nncc2CO[C@H]1CN(C)C(=O)C1CC1
inactive: cytotoxicity call [1] | cytotoxicity call [2] | growth inhibition call [3]
